± gives the standard deviation of the averaged measurements. The list shows a part of the results.

The test deals with PfAP2-EXP AP2 domain (GST-tagged). The experiment in a line: gcPBM binding intensity (ln(normalized median fluorescence intensity)); higher = stronger DNA binding. The method, boiled down:
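Binding of GST-tagged P. falciparum DNA-binding domains, expressed in E. coli and used at about 25 μg on average, was carried out for 1 h in 1× PBS containing 1% milk, 0.2 mg/ml BSA, 0.5% salmon testes DNA and 0.03% Triton X-100. The target was an Agilent 4 × 180k array of primer-extended double-stranded 36-bp intergenic genomic probes plus negative controls, read with Alexa488 anti-GST antibody at 488 nm. Binding intensity is the highest Masliner-normalised natural-log median intensity across replicate spots of either probe orientation.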
As for “TTTTTTTTTTTTTGTAGTACATTATGTATATTTTTA [XGTACX_site7810]”, the “gcPBM binding intensity (ln)” value is 8.44 ± 0.59. In the case of “TTAATAAGAGAGCAATAGGTGGACTGTTTCTTTTAT [CACACA_negctrl_site1239]” it was 8.36 ± 0.33; in that of “ATATATATATATAAAAGTACTTATTTTTATTTACAT [XGTACX_site4299]”, 9.87 ± 0.42; in that of “TTTTTATAGGTAAAAACACACGCTAAAAATAATTAA [CACACA_site3731]”, 8.67 ± 0.48.

As to “ATTTATATTACCCTTGCATGTAGGTGCAATTTTTTT [TGCATGCA_site757]”, the “gcPBM binding intensity (ln)” value amounted to 9.26 ± 0.099.

With “CATTTTGTTTTAAAGTGTACATTATGTAATATAAAA [XGTACX_site647]”, the “gcPBM binding intensity (ln)” value stood at 8.41 ± 0.35.

As for “AGGTACTTTTTTAAAACACACATATAATAAATACAC [CACACA_site4730]”, the “gcPBM binding intensity (ln)” value came out at 8.84 ± 0.28. In the case of “TTTATAATTTATATCACACACATATATATATAGTAA [CACACA_site8]” it was 8.41 ± 0.45.

For “AAATAAATAAATAAATAAACAAATATGTATAAATGG [XGTACX_negctrl_site153]”, the “gcPBM binding intensity (ln)” value was 8.62 ± 0.25. With “AATAAATATATATTCACACACAAACATATATATATA [CACACA_site4023]”, the “gcPBM binding intensity (ln)” value came out at 9.79 ± 0.3.

On to “TATATATATATATATTGTACATATGTAACCTTTTAA [XGTACX_site3914]”, for which the “gcPBM binding intensity (ln)” value is 10 ± 0.29. In the case of “CCTATATAATATATTTGTACTTAATAATTAAAGTGT [XGTACX_site5151]” it was 8.56 ± 0.41; in that of “ATAAGATTAAACATTGCACACAGAAATATATTTTCT [CACACA_site8743]”, 8.61 ± 0.36.

“TTTTTTAGATTACATAAATATAAATATAAATATATA [GTGCAC_negctrl_site459]”: the “gcPBM binding intensity (ln)” value worked out at 7.87 ± 0.35.

With “TCAACTATCAATATAGTGCATTTTTTTTGGAAAACC [GTGCAC_site9927]”, the “gcPBM binding intensity (ln)” value is 8.39 ± 0.34. In the case of “TATCAAAATTAGTATACACACAAAATTAATCAAATA [CACACA_site7117]” it was 8.37 ± 0.37; in that of “TCCCTTTGTATATATATATAAATATATATATATATA [CACACA_negctrl_site157]”, 9.72 ± 0.26; in that of “AGATTATATAAAAAAGTGCATATTTTCATTTTTTTT [GTGCAC_site9448]”, 8.4 ± 0.3.

Take “TTTATCGAATATAATAGTACATAAAAAAAAAAAAAA [XGTACX_site1734]”: the “gcPBM binding intensity (ln)” value is 8.38 ± 0.47. Take “CATTAAAATGGTAAATGTACATATCCATCTTCTCAC [XGTACX_site4636]”: the “gcPBM binding intensity (ln)” value was 8.46 ± 0.4.

For “ACATTTTTTTTGTGAGTCTTTGCGGCATCAAAATTT [XGTACX_negctrl_site348]”, the “gcPBM binding intensity (ln)” value was found to be 8.36 ± 0.2. As for “AAAAAAGAAAAAAACTGTACATGATAAATATTTATT [XGTACX_site7270]”, the figure is 8.65 ± 0.67; as for “TTATGAAGCAGACATGCATGTTATGGCTTAAATAAT [TGCATGCA_site492]”, 9.18 ± 0.59. In the case of “CATTTTTACAACGTTGCACACTTCAAAAGGTTTACA [CACACA_site2760]” it was 8.9 ± 0.38; in that of “TTTTAAATAAAAAAATTAAATTAAAATATATAAAAA [XGTACX_negctrl_site490]”, 8.1 ± 0.33.

Consider “TGTTTATACAATATTTGTACATATATTTTTATTTTT [XGTACX_site4104]”, for which the “gcPBM binding intensity (ln)” value came out at 8.57 ± 0.43. With “TATAAAAAAAAAAAAAGTACTTAAATATAAATAAAT [XGTACX_site5052]”, the “gcPBM binding intensity (ln)” value came out at 8.57 ± 0.47. As for “GATACTCTCTTTTAATGTACAAAATTTTAAAAATTA [XGTACX_site1781]”, the figure is 8.8 ± 0.49. As for “GTTCCATGAGTATATACATGCATATATCTAGTTTAT [TGCATGCA_site388]”, the figure is 9.04 ± 0.52; as for “AATGATATATTATAAACACACAAAGATGAATATATA [CACACA_site2818]”, 8.64 ± 0.47; as for “AATTAAAAAAAATACACACACACATACCCATATATA [CACACA_site5767]”, 8.77 ± 0.34. Consider “ATTCATTCATATGTTACACACACACCCACCCATAAA [CACACA_site9066]”, for which the “gcPBM binding intensity (ln)” value is 9.29 ± 0.6. In the case of “TACCCTCGTATATATATACACACTAAAATACAGACA [CACACA_site4154]” it was 8.82 ± 0.52; in that of “AATTTATGTTTTAAAAGTACTTTTCTAATTTATAAA [XGTACX_site1593]”, 8.44 ± 0.35; in that of “CTAAAGTAAATTTAAGCACACACAACGAATTTTTAT [CACACA_site8599]”, 8.65 ± 0.45.

On to “TATGTACAGACATATACACACCTCTATAATCTATAT [CACACA_site6482]”, for which the “gcPBM binding intensity (ln)” value amounted to 8.78 ± 0.39. In the case of “TTATTTATAAACATATGTACTAATACATGATTAACA [XGTACX_site7645]” it was 8.35 ± 0.33.

For “GACATATATATAAAATGTACATATATATTTACATAT [XGTACX_site7822]”, the “gcPBM binding intensity (ln)” value was 8.44 ± 0.37. As for “TGATAATAAGCATACACACACACACTAGAAAAAAAA [CACACA_site4558]”, the “gcPBM binding intensity (ln)” value came to 8.86 ± 0.53. As for “TGTTCTTTATTTTATTGTACTTTTAAAATTCCTTTA [XGTACX_site8058]”, the figure is 8.95 ± 0.33; as for “AAAAAAAAAAGACATGCATACGCTAATTTTTAGTTG [TGCATGCA_site300]”, 8.36 ± 0.49; as for “ATATATTTTTAAAAAAATTAAGAATTTTACATCTCC [CACACA_negctrl_site1450]”, 8.09 ± 0.38. In the case of “TATTATAATAAGAAGTGTACGTGTTTTTATAAATAA [XGTACX_site575]” it was 8.82 ± 0.085; in that of “TATAAAAAAAACGAAAAAAAAAAAAAAAATACAGGA [TGCATGCA_negctrl_site585]”, 8.54 ± 0.61.

Consider “ATTATGTTTCTTTTTTTTTTTAAAGGATGTCTTTTT [CACACA_negctrl_site974]”, for which the “gcPBM binding intensity (ln)” value came out at 8.47 ± 0.54. As for “TTTAAGCAAAAACACACACACATATATATATATATA [CACACA_site349]”, the figure is 10.1 ± 0.41; as for “TATAAATATATATACACACACATATATATTATATAT [CACACA_site596]”, 8.31 ± 0.33. Consider “AAAAAATGATAATATACACACTTATGGGAGAGCGCA [CACACA_site5398]”, for which the “gcPBM binding intensity (ln)” value stood at 8.275 ± 0.078. On to “AAGTTATATTTGTGTACACATAATTTTATACTAATA [CACACA_site5553]”, for which the “gcPBM binding intensity (ln)” value came out at 8.83 ± 0.014. In the case of “AATATTAAACAAAATAAATATATAAAAAATAAATAA [GTGCAC_negctrl_site93]” it was 8.54 ± 0.33; in that of “TATTTAATACGGACTCATAAATCTTAATAAAAAAAA [CACACA_negctrl_site434]”, 8.27 ± 0.33; in that of “AAAAATAAAATGGACACACACGTTCAAATTTAGATT [CACACA_site5186]”, 8.6 ± 0.56.

On to “CACGCACAGATATATACACACTTTTATTTAAATAAC [CACACA_site6852]”, for which the “gcPBM binding intensity (ln)” value is 8.7 ± 0.33.

With “GGATGCACACAAAAGGGTACATAAGAAAAAAACAGG [XGTACX_site8570]”, the “gcPBM binding intensity (ln)” value was 8.89 ± 0.47.

For “TTCACTAATAAATACGCACACATATACAGATATATA [CACACA_site4887]”, the “gcPBM binding intensity (ln)” value is 8.57 ± 0.16. In the case of “AAATATATATATAGTTGTACATATATCGTATATATT [XGTACX_site7867]” it was 8.39 ± 0.3.

The record behind these values is the supplement of paper PMC11417369.
